The full ranking holds about 33,000 sequences; the median of “E-score (-0.5 to 0.5)” is about -0.017, and the highest 2% start at about 0.3. Some of the results follow.
target: T1, Sut1 (UniProt P53032); assay: PBM E-score (8-mer binding enrichment) (E-score (-0.5 to 0.5)); higher = stronger / more preferred TF binding; most listed sequences are background and not binding sites; conditions: protein concentration: 200 nM; construct: GST-full length
T1 sequence: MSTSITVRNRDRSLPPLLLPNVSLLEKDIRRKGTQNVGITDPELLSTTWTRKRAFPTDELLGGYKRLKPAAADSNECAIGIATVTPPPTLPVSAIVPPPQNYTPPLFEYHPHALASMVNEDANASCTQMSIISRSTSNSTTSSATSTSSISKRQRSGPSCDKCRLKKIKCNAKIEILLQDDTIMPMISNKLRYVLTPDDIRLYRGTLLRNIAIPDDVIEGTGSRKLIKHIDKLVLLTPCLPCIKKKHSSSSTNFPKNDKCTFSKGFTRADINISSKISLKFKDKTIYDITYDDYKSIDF
Outline: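 Universal all-10-mer Agilent arrays, double-stranded by primer extension on fresh or once-stripped slides, were probed with about 100-200 nM GST-tagged yeast transcription factors made by PURExpress. Fluorescent anti-GST detected bound protein, and masliner normalised the scans. E-scores from the Universal PBM Analysis Suite were given to each ungapped eight-base word pooled with its reverse complement.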

Sequence | PBM E-score
CAATTCTC | 0.0643
ATTGTGTC | 0.112
GACCATCA | 0.0723
CAAGTTGA | -0.00947
CTGCCGCC | -0.183
GTTGCCTA | -0.044
AAAGTTAA | 0.291
ATCTGCCC | -0.0676
AAACTTAG | 0.099
TCGATACA | 0.181
TTCGCGAA | 0.0656
CATAGATA | 0.126
CGGAAAGC | 0.275
AAGGTTCC | 0.0977
ATCGCACC | -0.165
CCAAGTGA | -0.0738
GGCGTACC | -0.124
ATGGAAGC | 0.0216
CAGACATC | -0.101
AATGCGGG | -0.0213
CCGATAAC | 0.18
ACAGTGAT | -0.0348

Sequence | PBM E-score
ATTAGGAG | 0.0863
GGCGGTAA | 0.244
GTTTTGAA | 0.151
CCCCTAAA | -0.127
CCTGATAA | 0.095
CATGGAGA | -0.0668
CCAGGAGA | -0.0772
GGATCGCA | -0.193
TACTTTGA | 0.0956
TAACGGTA | 0.00821
GGGTCCGA | 0.295
CATCGCTC | -0.19
CCTAACAA | 0.102
CAGGCTGC | -0.129
GTATTAAA | 0.236
TAGGTAGA | -0.00102
AAGTAAAG | 0.139
CCTTCAAA | 0.163
ATTCCCAG | -0.0741
GTACTCAC | -0.0386
TTGTCAAA | 0.152
AACCTTCG | 0.144

Sequence | PBM E-score
CTGGCGAC | -0.269
AACCGTCA | -0.0173
GCAAATAA | 0.257
ATATGCTA | 0.0969
CGTCTCTA | -0.0494
CCTCCCAA | -0.281
CAAATTGC | 0.0275
GGAGGAGA | -0.313
GAACTAGA | 0.15
ACGCTGCT | -0.116
CTTGAATA | 0.0931
AGCAATGG | -0.0356
GCTTCTAC | 0.21
AGGACAGA | -0.112
GACCAGTC | -0.0905
ATGGTGAG | -0.213
ACTAGCAC | -0.161
CCGGTGAC | 0.211
ATTTTATA | 0.276
AGTTGTAA | 0.194
CTCCGATA | 0.432
CTAGACGA | -0.143

Sequence | PBM E-score
ATAGTTTA | 0.102
AGTACGGC | -0.0481
GCTTGAGA | -0.159
AGACTGGG | 0.00426
ACACCGGG | 0.0688
CTATGGAG | 0.0304
TATTCTGA | -0.0371
AAGTTTAC | 0.108
GATGACCC | -0.122
ACTCGAAC | -0.0124
AGACTGCG | -0.174
GAATTGCA | 0.0925
CCAGCTCC | 0.185
ATACCTAC | 0.0855
AGTATGTA | 0.0786
CCATACGA | -0.023
ACAATCTG | 0.123
ATCAAGTA | 0.126
TAGTAAAA | 0.268
TATCCTAA | 0.156

— the supplement of paper PMC3334620
